Target: T1, CD40-hFc protein (Acro Biosystems, #CD0-H5253) (UniProt P25942 partial chain)
T1 construct: Bought protein
Experiment: SPR (Biacore 8K): CD40-hFc captured on immobilized anti-human Fc IgG, scFv injected in 2-fold dilutions (6 curves)
Text: Since the murine anti-His antibody had decreased binding affinity against 6×His peptide after humanization, affinity maturation was further performed to increase it and chicken anti-CD40 antibody (2B1) was only humanized. Serial dilution antibodies at 6 concentrations were used to characterize the kinetics of antibody-antigen binding by SPR. […] So, there was not affinity loss against their antigen after humanization (FIG. 22B).
A Biacore 8K SPR system (Cytiva) equipped with CM5 sensor chip (Cytiva) was used to generate binding kinetic rate and affinity constants. To prepare the capture surfaces for anti-His antibodies, streptavidin was immobilized, followed by biotin conjugated 6×His peptide was captured. The antibodies were 2-fold serial diluted with 1×PBS, then injected at a flow rate of 30 μL/min for 3 minutes, allowing 10 minutes dissociation phase. The surface was regenerated using 10 mM glycine, pH 1.5. The kinetics were analyzed using Biacore 8K evaluation software, version 1.0 (Cytiva). In case of anti-CD40 antibodies, anti-human Fc IgG (Jackson ImmunoResearch) was immobilized, and then CD40-hFc protein (Acro Biosystems, #CD0-H5253) was captured. The antibodies were 2-fold serial diluted with HBS-EP+ buffer (10 mm HEPES, 150 mm sodium chloride, 3 mm EDTA, 0.05% Polysorbate 20), then injected at a flow rate of 30 μL/min for 4 minutes, allowing >15 minutes dissociation phase.

T1 sequence (P25942 21-193 limits assumed): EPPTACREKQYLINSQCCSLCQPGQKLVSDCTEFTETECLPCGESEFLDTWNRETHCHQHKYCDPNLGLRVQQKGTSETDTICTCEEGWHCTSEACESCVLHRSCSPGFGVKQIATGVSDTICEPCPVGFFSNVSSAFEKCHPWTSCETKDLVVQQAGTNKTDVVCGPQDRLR

Kd: 0.061 nM | koff: 1.13e-05 s⁻¹ | kon: 185000 M⁻¹ s⁻¹
B1: Humanized anti-CD40 scFv (2B1 clone) (scFv)
scFv: AIQLTQSPSSLSASVGDRVTITCSGGDSYAGSYYYGWYQQKPGKAPKTLIYYNDKRPSGVPSRFSGSTSGTDSTLTISSLQPEDFATYYCGSIDTSSGTGIFGQGTKLEIKGQSSRSSGGGGSSGGGGSEVQLLESGGGLVQPGGSLRLSCAASGFTFSSYQMFWVRQAPGKGLEYVSEISGSGLSTWYAP[about 20 residues not listed]MNSLRAEDTAVYYCAKAAGSCGVGTCAGGIVDAIDAWGQGTTVTVSS
notes: also called hu2B1; humanized anti-hCD40

From patent US20250018037A1 (SEOUL NATIONAL UNIVERSITY R AND DB FOUNDATION, published 2025)
